Data from the RNAGym collection of RNA variant scans (doi:10.1073/pnas.2313332121).
Variants at the floor of the assay are shown more often than the library holds them.

B1: TPR 5TU (parent)
chain: GGAUCUUCUCGAUCUAACAAAAAAGACAAAUCUGCCACAAAGCUUGAGAGCAUCUUCGGAUGCAGAGGCGGCAGCCUUCGGUGGCGCGAUAGCGCCAACGUUCUCAACUAUGACACGCAAAACGCGUGCUCCGUUGAAUGGAGUUUAUCAUG

Variants of: B1
Assay: polymerase ribozyme fitness, log enrichment relative to wild type (log ratio); higher = more active; in vitro selection for triplet polymerase activity
Summary of the method: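 Mutant libraries of each subunit of a heterodimeric triplet polymerase ribozyme were built by PCR and transcribed. Each library went through one round of in vitro selection in triplicate: annealing with biotinylated primer, partner subunit and triplets, frozen incubation at −7 °C, gel excision of extended constructs, streptavidin-bead capture and RT-PCR. Input and output libraries were Illumina-sequenced; only genotypes with ≥10 input reads and ≥1 read per output were kept. Fitness is log2(genotype enrichment/wild-type enrichment), using inverse-variance-weighted replicate averages.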

**Q.** Which “polymerase ribozyme fitness (log ratio)” value does the source give for GGAUCUUCUCGAUCUAACAAAAAAGACAAAUCUGCCUCAAAGCUUGGGAGCAUCUUCGGAUGCAGAGGCGGCAGCCUUCGGUGGCGAGAUAGCGCCAACGUUUUCAACUAUGACACGCAAAACGCGUGCUCCGUUGAAUGGAGUUUAUCAUG [A37U A47G C87A C103U] here?
**A.** ≤ -4.2

**Q.** Which “polymerase ribozyme fitness (log ratio)” value does the source give for GGAUCUUCUCGAUCUAACAAAAAAGACAAAUCUGCCGCAAAGCUUGAGAGCAUCUUCGGAUGCAGAGGCGGCAGCCUUCGGUGGCUCGAUAGCGCCAACGGUCUCAACUAUGACGCGCAAAACGCGUGCUCCGUUUAAUGCAGUUUAUCAUG [A37G G86U U101G A115G G136U G141C] here?
**A.** ≤ -4.2

**Q.** For GGAUCUUCUCGAUCUAACAAAAAAGACAAAUCUGCCUCACAGCUUGAGAGCAUCUUCGGAUGCAGAGGCGGCAGCCUUCGGUGGCUCGAUAGCGCCAACGUUCUCAACUAUGACACGCAAAACGUGUGCUCCGUUGAAUGGAGUUUUUGAUG [A37U A40C G86U C125U A147U C149G], which “polymerase ribozyme fitness (log ratio)” value is on record?
**A.** ≤ -4.2

**Q.** For GGAUCUUCUCGAUCUAACAAAAAAGACAAAUCUGCCGCAAAGCUUGAGAGCAUCUUCGGAUGCAGAGGCGGCAGCCUUCGGUGGCGCGAAAGCACCAACGUUUUCAGCUAUGACACGCAAAACGGGUGCUCCGUUGAAUGAAGUUUAUCAUG [A37G U90A G94A C103U A107G C125G G141A], which “polymerase ribozyme fitness (log ratio)” value is on record?
**A.** ≤ -4.2

**Q.** For GGAUCUUCUCGAUCUAACAAAAAAGACAAAUCUGCCUCAAAGCUUGAGCGCAUCUUCGGAUGCAGAGGCGGCAGCCUUCGGUGGCGCGAUAGCGCCAACGUUCUCAACUAUGACACGCAAAACGCGUGCUCCGUUGAAUGGAGUUUAUCAUG [A37U A49C], which “polymerase ribozyme fitness (log ratio)” value is on record?
**A.** ≤ -4.2

**Q.** With GGAUCUUCUCGAUCUAACAAAAAAGACAAAUCUGCCUCAAAGCUUGAGAGCGUCUUCGGAUCCAGAGGCGGCAGCAUUCGGUGGCGCGAUAGCGCCAACGUUCUCAACUAUGACACGCAAAACUCGUGCUCCGUUGAAUGGAGUUUAUCAUG [A37U A52G G62C C76A G124U] as the variant, how does the “polymerase ribozyme fitness (log ratio)” value read?
**A.** ≤ -4.2

**Q.** For GGAUCUUCUCGAUCUAACAAAAAAGACAAAUCUGCCUCAAAGCUUGAGAGCCUCUUCGGAUGCAGAGGCGGCAGCCUUCGGUGGCGCGAUAGCGCGAACGUUCUCAACUAUGUCACGCAAAACGCGUGCUCCGUCGAAUGGAGUUUAUCAUG [A37U A52C C96G A113U U135C], which “polymerase ribozyme fitness (log ratio)” value is on record?
**A.** ≤ -4.2

**Q.** Which “polymerase ribozyme fitness (log ratio)” value does the source give for GGAUCUUCUCGAUCUAACAAAAAAGACAAAUCUGCCGCAAAGCUUGAGAGCAUCAUCAGCUGCAGCGGCGGCAGCGUUCGGUGGCGCGAUAUCGCCAACGUUCUCAACUAUGACACGCAAAACGCGUUCUCCGUUGAAUGGAGUUUAACUUG [A37G U55A G58A A60C A66C C76G G92U G128U U148A A150U] here?
**A.** ≤ -4.2

**Q.** Which “polymerase ribozyme fitness (log ratio)” value does the source give for GGAUCUUCUCGAUCUAACAAAAAAGACAAAUCUGCCGCAAAGCUUGAGAGCAUCUUCGGAUGCAGAGGCGGCAGCCGUCGGUGGCGCGAUAGCGCCAACGUUCUCAACUAUGACACGCAAAACGCGUGCUCCGUUGAAUGGAGUUUCUCAUG [A37G U77G A147C] here?
**A.** ≤ -4.2

**Q.** Which “polymerase ribozyme fitness (log ratio)” value does the source give for GGAUCUUCUCGAUCUAACAAAAAAGACAAAUCUGCCUCAAAGCUUGAGAGCAUCUUCGGAUGCAGAGGCGGCAGCCUUCGGUGGCGCGAUAGCGCCAACGUUCUCAACUAUGUCAUGCAAAACGCGUGCUCCGUUCAAUGGAGUUUAUCAUG [A37U A113U C116U G136C] here?
**A.** ≤ -4.2

**Q.** For GGAUCUUCUCGAUCUAACAAAAAAGACAAAUCUGCCUCGAAGCUUGAGUGCAUCUUCGGAUGCAGAGGCGGCAGCCUUCGCUGGCGCGAUCGCACCAACGUUCUCAACUAUGACACGCAAAACGCGUGCUCCGUUGAAUGGAGUUAAUCAUG [A37U A39G A49U G81C A91C G94A U146A], which “polymerase ribozyme fitness (log ratio)” value is on record?
**A.** ≤ -4.2

**Q.** Which “polymerase ribozyme fitness (log ratio)” value does the source give for GGAUCUUCUCGAUCUAACAAAAAAGACAAAUCUGCCGCAAAGCUUGAGAGCAUCUUCGGAUGCAGAGGCGGCAGCCUUCGCUGGCGCGAUAGCGCCAACGUUCUCAACUAUGACACGCAAAACGCGUGCUCCGUUGAAUGGCGUUUAUCAUG [A37G G81C A142C] here?
**A.** -3.82

**Q.** With GGAUCUUCUCGAUCUAACAAAAAAGACAAAUCUGCCUCAAAGCUUGAGAGUAUCUUCGGAUGCAGAGGCGGCAGCCUUCGGUGGCGCGAUAGCGCCCACGUUCUCAACUAUGACACGCAAAACGCGUGCUCCGUUGAAUGGAGUUUAUCAUG [A37U C51U A97C] as the variant, how does the “polymerase ribozyme fitness (log ratio)” value read?
**A.** -2.02

**Q.** With GGAUCUUCUCGAUCUAACAAAAAAGACAAAUCUGCCUCAAAGCUUGAGAGCAUCUUUGGCUGCAGAGGCGGCAGCCUUCGGUGGCGGGAUAGCGUGAACGUUCUCUACUAUGACACGCAAAACGCGUGCUCCGUUAAAUGCAGUUUAUCAUG [A37U C57U A60C C87G C95U C96G A106U G136A G141C] as the variant, how does the “polymerase ribozyme fitness (log ratio)” value read?
**A.** ≤ -4.2

**Q.** Which “polymerase ribozyme fitness (log ratio)” value does the source give for GGAUCUUCUCGAUCUAACAAAAAAGACAAAUCUGCCGCAAAGCUUGAGAGCAUCUACGGAUGCAGAGGCGGCAGCCUUCGGUGGCGCGAUAGCGCCGACGUUCUCAACUAUGACACGCAAAACGCGUGCUCCGUUGAAUGGAGUUUAUCAUG [A37G U56A A97G] here?
**A.** -2.85

**Q.** For GGAUCUUCUCGAUCUAACAAAAAAGACAAAUCUGCCUCAAAGCUUGAGAGCAUCUUCGGGUGCAGAGGCGGCAGCCUUCGGUGGCGCGAUGGCGCCAACGUUCUCAACUAUGACACGCAAAACGCGUGCUCCGUUGAAUGGACUUUAUCAUG [A37U A60G A91G G143C], which “polymerase ribozyme fitness (log ratio)” value is on record?
**A.** ≤ -4.2

**Q.** Which “polymerase ribozyme fitness (log ratio)” value does the source give for GGAUCUUCUCGAUCUAACAAAAAAGACAAAUCUGCCUCAAAGCUUGAGAGCCUCUUCGGAUGCAGAGGCGGCAGCCUUCGGUGGCGCGAUAGCGCCAACGUUCUCAACUAUGACAGGCAAAACGCGUGCUCCGUUGAAUGGAGUUUAUCAUG [A37U A52C C116G] here?
**A.** -2.94

**Q.** Which “polymerase ribozyme fitness (log ratio)” value does the source give for GGAUCUUCUCGAUCUAACAAAAAAGACAAAUCUGCCUCAAAGCUUGAGAGCAUCUUCGGAUGCCGAGGCGGCAGCCUUCGGUGGCGCGAUAGCGCCAACGUUCUCAACUAUGACACGCAAAACGCGUGCUCCGUCGAAUGGAGUUUAUCAUG [A37U A64C U135C] here?
**A.** ≤ -4.2

**Q.** Which “polymerase ribozyme fitness (log ratio)” value does the source give for GGAUCUUCUCGAUCUAACAAAAAAGACAAAUCUGCCUCAUAGCUUGAGAGCAUCUUCGGAUGCAGAGGCGGCAGCCUUCGGUGGCGCGUUAGCGCCAACGUUCUCAACUAUGACACGCAAAACGCGUGCUGCGUUGAAUGGAGUUUAUCAUG [A37U A40U A89U C131G] here?
**A.** ≤ -4.2
